Each structure is given as a SMILES string. About 7,500 (2.1%) of roughly 360,000 compounds were called active. Not shown: some 8% with an inconclusive outcome. Calls come from the whole dose curve; as a rule, active = well fitted cell-killing curve with a large enough effect; inconclusive = small, poorly fitted or top-dose-only effect, or effect the other way, or another doubt; inactive = no such curve, though single readings can be large or run the other way. This is a selection; strong and weak results do not stand in their true shares.
Potency is the fitted concentration of half-maximal effect.

This experiment can be described thus: qHTS for induction of synthetic lethality in tumor cells producing 2HG: qHTS for the HT-1080-IDH1KD cell line. As to conditions: HT-1080 IDH1 knockdown viability, ATP luminescence, 48 h; series mostly up to 46.1 µM; activity, negative = toxicity: at the top concentration. From the text:
Unbiased genomic sequencing for 22 glioma genomes found recurrent mutation of IDH1 on chromosome 2q33, a gene encoding the cytosolic isoform of IIDH1 associated with the tri-carboxylic acid cycle (TCA) that catalyzes the oxidative decarboxylation of isocitrate, yielding alpha-ketoglutarate and CO2 via NADP+ to NADPH conversion. Subsequent studies confirmed the recurrent IDH mutations in up to 70% of secondary gliomas and in 10% of AML cases. In addition, the somatic mutation of cancer-associated IDH1 is a point mutation resulting in various amino-acid substituents at Arginine132 (IDH1 R132), a key residue found in the enzyme's active site that when mutated, results in the loss-of-function in metabolizing isocitrate but confers a gain-of-function to produce the oncometabolite 2-hydroxyglutarate (2HG). This in effect defines IDH1 as an oncogene and provides an extraordinary opportunity to discover chemical probes against mutant IDH1 that may translate into much needed new therapies for glioma and AML patients.
This assay aims to perform a synthetic-lethal screen for chemical probes specific for 2HG-producing tumor cells using matched paired cell lines (1) HT-1080-NT fibrosarcoma cell line that overproduces 2HG and (2) HT-1080-IDH1KD cell line which has IDH1 expression knocked-down. Desirable compounds are toxic to the NT fibrosarcoma cell line but not to the IDH1KD cell line. The data in this AID corresponds to the results of the qHTS against the HT-1080 IDH1KD cell line.
[1] Dang L, Jin S, Su SM. IDH mutations in glioma and acute myeloid leukemia. Trends of Mol Med. 2010; 16(9): 387-97.
[2] Dang L et al. Cancer-associated IDH1 mutations produce 2-hydroxyglutarate. Nature. 2010; 465(7300):966.
Molecular Libraries Probe Production Centers Network [MLPCN]
NIH Chemical Genomics Center [NCGC]
Assay Submitter (PI): Lenny Dang Ph.D., Agios Pharmaceuticals
Suspensions of trypsinized HT-1080-IDH1KD cells were dispensed into white, tissue culture-treated, solid 1536-well plates at 5uL/well (750 cells/well final concentration) in RPMI medium supplemented with 5% FBS. Plates were incubated at 37 degrees C for 2 hours, after which 23 nL of compounds or DMSO were delivered to each well using a pin tool. Plates were then incubated at 37 degrees C for an additional 48 hours. CellTiter-Glo viability reagent (Promega) was dispensed into wells (2.5uL/well) and incubated at room temperature for 10 minutes. The plates were measured on a PerkinElmer ViewLux plate reader for luminescent signal (clear filter, 1 sec exp.). DMSO-treated control wells and media-only (no cells) control wells were used to normalize %Activity of identified toxic compounds; DMSO-treated wells corresponded to 0%Activity (100% viability), while media-only controls were used to normalize 100%Activity (0% viability). To minimize variability between cell lines, both HT-1080-NT and HT-1080-IDH1KD lines were dispensed and treated with identical compound series in single batches.
Concentration-response curves were fitted to the signals arising from the resulting luminescence. The concentration-effect curves were then classified based on curve quality (r2), response magnitude and degree of measured activity, and compounds were subsequently categorized based on their curve class.
Background: Quantitative high-throughput screening tests each substance at several concentrations.
Turning to `Cc1ccc(Cl)cc1NC(=S)N/N=C/c1cccc2ccccc12`, the Potency is active: 2.59 µM.

Consider `CC1CC(C)CN(CCCNC(=O)c2cc3c(s2)-c2ccccc2OC3)C1` (stereo not given), for which the Potency was active: 18.4 µM.

Turning to `NC(=O)c1cccc(-c2ccnc3c2CC(C(=O)NCCc2ccccc2)O3)c1` (stereo not given), the Potency was active: 7.31 µM.

In the case of `CCCNC1=C(N(C(C)=O)c2cccc(F)c2)C(=O)c2ccccc2C1=O`, the Potency is active: 4.61 µM.

Take `O=S1(=O)N[C@@H](Cc2ccccc2)COc2cc(N3CCC[C@H]3CO)ccc21`: the “activity, negative = toxicity” value was inactive: -17.1%.

Regarding `Cc1noc(NS(=O)(=O)c2ccc(N/C=C\C(=O)c3ccccc3)cc2)c1C`, the “activity, negative = toxicity” value is inactive: 0%.

Turning to `O=C1NC[C@@H](CCCCN2C[C@H](Cc3ccc(O)cc3)N(CCc3ccc(O)cc3)C(=O)C2=O)N(CC2CCCCC2)C1=O`, the “activity, negative = toxicity” value is inactive: 15.2%.

Consider `CN(C)CC[C@@H](c1ccc(Br)cc1)c1ccccn1`, for which the “activity, negative = toxicity” value is inactive: -23%.

Turning to `COc1ccc(-c2nc3cnccn3c2NC2CCCCC2)cc1-c1cccc(Cl)c1`, the “activity, negative = toxicity” value is inactive: -20.6%.

For the compound `C/C=C/Cn1c(SCCCc2ccccc2)nc2c1c(=O)[nH]c(=O)n2C`, the “activity, negative = toxicity” value is inactive: -19.9%.

As for `Oc1ccc(C[C@@H]2CNCCN2CCCCC2CCCCC2)cc1`, the “activity, negative = toxicity” value is inactive: -15.7%.

For the compound `O=C1S/C(=C/c2ccc(N3CCOCC3)o2)C(=O)N1Cc1ccc(F)cc1`, the “activity, negative = toxicity” value is inactive: 8.78%.

In the case of `CCCCCCN1C[C@H](n2cc(-c3ccc(F)cc3)nn2)[C@@H](O)C[C@@H]1c1ccc(OC)cc1`, the “activity, negative = toxicity” value is inactive: -3.79%.

With `COC(C/C=C/C(=O)[C@@H](C)OCc1ccccc1)OC`, the “activity, negative = toxicity” value is inactive: -22.5%.

Consider `C[C@@H]1COc2cccc(N3CCC[C@@H]3CO)c2S(=O)(=O)N1`, for which the “activity, negative = toxicity” value is inactive: 1.81%.

Take `CCOC(=O)c1c(C)[nH]c(C(=O)OC/C(O)=C(\C#N)c2nc3ccccc3[nH]2)c1C`: the “activity, negative = toxicity” value was inactive: -17.8%.

As for `CCOc1cc(CNCCO)cc(Br)c1OCc1ccccc1Cl`, the Potency was active: 23.1 µM.

For `C=CC[C@@H](CC(=O)N[C@H](CO)Cc1ccccc1)C(=O)N[C@@H](COC(=O)[C@@H](CC=C)Cc1ccc(F)cc1)Cc1c[nH]c2ccccc12`, the “activity, negative = toxicity” value is inactive: -8.77%.

`C=CC[C@@H](Cc1ccc(F)cc1)C(=O)OC[C@H]1CCCN1C(=O)[C@H](CC=C)CC(=O)N(CCO)Cc1ccccc1`: the “activity, negative = toxicity” value is inactive: -17.3%.

For the compound `O=C1NC[C@H](c2ccccc2)OC(=O)[C@H](Cc2ccc(F)cc2)C/C=C\C[C@@H]1CC(=O)N(CCO)Cc1ccccc1`, the “activity, negative = toxicity” value was inactive: 0.0188%.

On to `O=C(NCc1ccccc1)C1=C[C@H](c2csc3ccccc23)C[C@H](OCCCCO)O1`, for which the “activity, negative = toxicity” value is inactive: -12.4%.

Turning to `Cn1ccnc1SCC(=O)c1ccc(Cl)cc1`, the “activity, negative = toxicity” value was inactive: 4.5%.

`O=C1N/C(=N/N=C/c2ccccc2O)SC1Cc1ccc(F)cc1` (stereo not given): the Potency is active: 23.1 µM.

For `CCc1nn(CCCN2CCN(c3cccc(Cl)c3)CC2)c(=O)n1CCOc1ccccc1`, the “activity, negative = toxicity” value is inactive: -21%.

Consider `O=C(Cn1c[n+](CC(=O)c2ccc([N+](=O)[O-])cc2)cn1)c1ccc([N+](=O)[O-])cc1`, for which the “activity, negative = toxicity” value is inactive: -3.05%.

Source of the values: PubChem BioAssay AID686971 (National Center for Advancing Translational Sciences (NCATS), 2013).
